Data reported in the supplement of paper PMC10338343.
± gives the standard deviation. The entries are a selection whose mix differs from that of the whole data set.

System: MIWI (PIWIL1) piRISC loaded with L1MC piRNA (30 nt)
Assay: pre-steady-state target cleavage rate (min^-1); MIWI and MILI are mouse PIWI proteins and EfPiwi is from a freshwater sponge; tags in brackets are library labels; higher = faster piRNA-guided slicing of the target
Conditions: guide: L1MC piRNA 5'p-UAACUAAAUACUAUGCAAGCUGUAGGUCCU
How it was run: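 In Cleave-'n-Seq, a transcribed, DNA-blocked target RNA library (0.1 nM) was combined with 1 nM active affinity-purified piRISC bearing one synthetic guide, with or without 500 nM GTSF1 partner protein. Reactions ran in HEPES–potassium acetate buffer at 33 °C for 0–8 or 0–960 min. Uncleaved targets were sequenced and normalised to depth and to weakly complementary targets, three trials were pooled, and k3 was capped at 0.0001 min^-1. The pre-steady-state cleavage rate was obtained by fitting a burst-and-steady-state model.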

[1] = auxiliary factor: 500 nM mouse GTSF1
[2] = auxiliary factor: none (no GTSF1)

Sequence | pre-steady-state target cleavage rate [1] | pre-steady-state target cleavage rate [2]
UCCUCCUACAGGUUGCAUAGUAUUUAGAUA | 0.346 ± 0.044 | 0.00751 ± 0.0014
UCCUGGAUGAGCUUGCAUAGUAUUAAGUUA | 0.544 ± 0.066 | 0.0124 ± 0.0049
AGGACCAUGAGCUUGCAUAGUAUUUACAAA | 0.141 ± 0.03 | 0.00392 ± 0.0023
AGGACCUACAGCUUGCUUAGUUUUUAGUUA | 0.257 ± 0.018 | 0.0183 ± 0.0038
UGGAGGAACAGCUUGCAUAGUAUUUAGUAA | 0.754 ± 0.05 | 0.0519 ± 0.012
AGGACCUACAGCUUGCAUAGUAUUUUGUUA | 0.949 ± 0.064 | 0.0718 ± 0.016
UCCUGGAACAGCUUGCAUAGUAUUUUCUUA | 0.127 ± 0.03 | 0.00808 ± 0.0023
UCCUGGUACAGCUUGCAUAGUAUUCAGUUA | 0.197 ± 0.034 | 0.0276 ± 0.0071
UCCUGGAUGAGCUAGCAUAGUUUUUAGUUA | 0.0762 ± 0.012 | 0.00858 ± 0.0029
UCCACCUACAGGAUGCAUAGUAUUUAGUAA | 0.866 ± 0.1 | 0.00483 ± 0.0013
UCCUGCUACAGCUUGCAAGUAUUUAGUUA | 0.325 ± 0.036 | 0.00689 ± 0.0028
UCCAGCUAGAGCUUGCAUAGUAUUUAGUUA | 0.288 ± 0.033 | 0.0158 ± 0.0021
UGGACCUACAGCUUGCAUAGUAAAUAGUUA | 0.751 ± 0.057 | 0.0156 ± 0.0049
UCCAGCUACAGGUUGCAUAGUAUUUAGUUA | 0.959 ± 0.046 | 0.0231 ± 0.0034
UCCUGGAUGUGCUUGCACAGUAUUUAGUUA | 0.558 ± 0.049 | 0.0421 ± 0.011
AGGACCUUCAGGUUGCAUAGUAUUUAGUUA | 1.14 ± 0.083 | 0.0517 ± 0.009
UCCUGGAUGUCGAACGUAAGUAUUUUAGUUA | < 0.0001 | < 0.0001
UGGACCUACAGCAUGCAUAGUAUUUAGUUA | 1.38 ± 0.078 | 0.0549 ± 0.011
UCCUGGAUGUCCUUGCAUAGUAUUAAGUUA | 0.0295 ± 0.0085 | 0.00292 ± 0.0021
UCCUCCUACAGCAUUGCAUAGUAUUUAGUUA | 0.796 ± 0.051 | 0.0258 ± 0.0037
UCCACCUACAGCUUGCAUAGUAUUUAUGUUA | 0.416 ± 0.034 | 0.0318 ± 0.0075
UCCUCCUACAGCAUGCAUAGUAUAUAGUUA | 0.786 ± 0.042 | 0.00795 ± 0.0022
UCCUGGAACAGCUUGCAUAGUAUUAUAGUUA | 0.625 ± 0.041 | 0.0227 ± 0.005
UCCUGCUACAGCAUGCUUAGUAUUUAGUUA | 0.819 ± 0.07 | 0.00897 ± 0.0027
UCCACCUACAGCCUGCAUAGUAUUUAGUUA | 1.15 ± 0.033 | 0.0634 ± 0.01
UCCACCUACAGCUUGGUUAGUAUUUAGUAA | 0.537 ± 0.045 | 0.00379 ± 0.0021
UCCACCUACAGCUUGCAUAGAUUUUAGUUA | 0.144 ± 0.018 | 0.00423 ± 0.002
UGGACCUACAGCUUGCAUAGAAUUUACUUA | 0.188 ± 0.026 | 0.0132 ± 0.0038

Sequence | pre-steady-state target cleavage rate [1] | pre-steady-state target cleavage rate [2]
UCCUGGUACAGGUUGCAUACUAUUUAGUUA | 0.366 ± 0.064 | 0.013 ± 0.0054
UCCUCCUACAGCUAUGCAUAGUAUUUAGUUA | 0.812 ± 0.032 | 0.0189 ± 0.0035
UCCUGCUACAAGCUUGCAUAGUAUUUAGUUA | 0.539 ± 0.038 | 0.0289 ± 0.0068
UCCUCCUACAGCUUGCACAGUAUUUAGUUA | 1.04 ± 0.031 | 0.0541 ± 0.0096
UGGAGCUACAGCUUGCAUAGUAUUAAGUUA | 0.802 ± 0.051 | 0.0384 ± 0.0088
UCCUGGAACUGCUUGCAUAGUAUUAAGUUA | 0.288 ± 0.024 | 0.0114 ± 0.0043
UCCUGGUAGUGCUUGCAUAGUAUUUAGAAA | 0.0731 ± 0.014 | 0.00718 ± 0.0032
UGGCCCUACAGCUUGCAUAGUAUUUAGUUA | 1.39 ± 0.11 | 0.0833 ± 0.015
UCCUGGAUCAGCAUGCAAAGUAUUUAGUUA | 0.462 ± 0.033 | 0.00887 ± 0.0031
UCGACCUAGAGCUUGCAUAGUAUUUAGUAA | 0.941 ± 0.057 | 0.0365 ± 0.0094
UCCUGGAUCAGCUUGCAAAGUAUUUACUUA | 0.264 ± 0.021 | 0.0176 ± 0.0051
UCCUGGUACAAGCUUGCAUAGUAUUUAGUUA | 0.474 ± 0.045 | 0.0473 ± 0.0088
UGGAACUACAGCUUGCAUAGUAUUUAGUUA | 1.09 ± 0.041 | 0.0698 ± 0.011
UCCUCCUACAAGCUUGCAUAGUAUUUAGUUA | 0.941 ± 0.033 | 0.0524 ± 0.01
UCCUGGUAGAGCUUGCAUAGUAUUAAGUUA | 0.465 ± 0.072 | 0.0149 ± 0.0049
UCGACCUACACCUUGCAUACUAUUUAGUUA | 0.284 ± 0.026 | 0.0281 ± 0.0057
UCCACCUACUCCUUGCAUAGUAUUUAGAAA | 0.281 ± 0.043 | 0.0046 ± 0.0018
UCCUGGUACAGCUUGCAUACUAAUUAGUUA | 0.136 ± 0.028 | 0.00652 ± 0.0025
AGGACCUCAGCUUGCAUAGUAUUUAGUUA | 1.34 ± 0.077 | 0.0984 ± 0.019
UCCUGGAUGAGCAUGCAUAGUAUUUAGAUA | 0.252 ± 0.034 | 0.00417 ± 0.0028
UCCACCUACAGGUUGCAUAGUAUUUAGAUA | 0.523 ± 0.057 | 0.00947 ± 0.0023
UCCUGGUACAGCUUGCAUAGAAUAUAGUUA | 0.218 ± 0.036 | 0.00623 ± 0.0041
UGGUCCUACAGCUUGCAUACUAUUUAGUUA | 0.366 ± 0.021 | 0.0325 ± 0.0053
UCGACGUACAGCUUGCAUAGUAUUUUGUUA | 0.798 ± 0.037 | 0.0411 ± 0.0071
UCCUGGAUCAGCUUGCAUAGUAUAUUAGUUA | 0.959 ± 0.094 | 0.00658 ± 0.0033
UGGACCUACAGCUAGCAUAGUAUUUAGAAA | 0.409 ± 0.041 | 0.0032 ± 0.0023
UCCUCCUACAGCUUGCAAAGUAUUUAGAUA | 0.313 ± 0.04 | 0.00839 ± 0.0022
